The source of these data is ChEMBL document CHEMBL1201862, “PubChem BioAssay data set” (2004).

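Method: 48-hour compound exposure of cells in 96-well plates, five concentrations, linear interpolation of endpoints. At the GI50, growth is halved.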 Calls of active or inactive are those of the source. Cut-off read from the data, not from the text of the source: active = GI50 up to about 1.1 µM and inactive = higher.

The test system of this test is NCI-H322M. Put plainly: NCI-60 cell line screen, 48 h.
Take `Cc1ccc(-c2cn3c(nc4ccccc43)c(-c3ccccc3)n2)cc1`: the GI50 is inactive: > 100 µM.

With `O=[N+]([O-])c1ccc(S(=O)(=O)Cc2ccccc2)c([N+](=O)[O-])c1`, the GI50 was inactive: 17.6 µM.

As to `Nc1ccccc1.O=P(O)(O)c1ccccc1`, the GI50 is inactive: > 100 µM.

On to `CN(C)Cc1cc(C(=O)O)cc(CN(C)C)c1O`, for which the GI50 is inactive: > 100 µM.

Regarding `Cc1ccccc1C1=C/C(=C(\SS/C(C(=O)c2ccc(OCC(=O)O)c(Cl)c2Cl)=C2\C=C(c3ccccc3C)SS2)C(=O)c2ccc(OCC(=O)O)c(Cl)c2Cl)SS1`, the GI50 was inactive: 57.8 µM.

As for `O=C1NC(c2ccccc2)N=C2Oc3ccccc3C=C12` (stereo not given), the GI50 is active: 0.0546 µM.

As for `Cc1ccc(S(=O)(=O)NC2(C=O)CCCC3CCCCC32)cc1` (stereo not given), the GI50 is inactive: > 100 µM.

`CNS(=O)(=O)NN(C)S(=O)(=O)c1ccc(Br)cc1`: the GI50 is inactive: > 100 µM.

In the case of `COC(C)C(O)(C(=O)OCC1=CCN2CCC(O)C12)C(C)(C)O` (stereo not given), the GI50 was inactive: > 100 µM.

For `CC(C)C(/N=C/c1ccccc1O)C(=O)O` (stereo not given), the GI50 is inactive: > 100 µM.

For the molecule `CCOC(=O)CCc1cccc2c1oc1c(CCNC(=O)OCC3c4ccccc4-c4ccccc43)cccc12`, the GI50 is inactive: 12.1 µM.

Take `CCC(C)C(N)C(=O)NC(CC(N)=O)C(=O)NC(CC(C)C)C(=O)NC(CCCCN)C(=O)NC(C)C(=O)NC(CC(C)C)C(=O)NC(C)C(=O)NC(C)C(=O)NC(CC(C)C)C(=O)NC(C)C(=O)NC(CCCCN)C(=O)NC(CCCCN)C(=O)NC(C(=O)NC(CC(C)C)C(N)=O)C(C)CC` (stereo not given): the GI50 was inactive: 7.38 µM.

`CC1=C(C(=O)Nc2cccc(C(F)(F)F)c2)C(c2ccc(O)cc2)C(C(=O)Nc2cccc(C(F)(F)F)c2)=C(C)N1`: the GI50 is inactive: 23.8 µM.

`COC(=O)CCC(C)[C@H]1CCC2C3C(C[C@H](OC(C)=O)[C@@]21C)[C@@]1(C)CCC2(C[C@H]1C[C@H]3OC(C)=O)OOC1(CCC(C(C)(C)C)CC1)OO2` (stereo not given in full): the GI50 was inactive: 56 µM.

As for `C/C1=C/C2=CC(C)C[C@@H]2C(=O)[C@]2(C)C(=O)CC(C)(C)[C@H]2CC1=O` (stereo not given in full), the GI50 was inactive: > 50 µM.

As for `CC1(C)C(c2ccccc2)C12CCC1(C2=O)C(c2ccccc2)C1(C)C` (stereo not given), the GI50 was inactive: 34.9 µM.

`CC1=C2CCCC2C/C(=N/Nc2ccc([N+](=O)[O-])cc2[N+](=O)[O-])CC1` (stereo not given): the GI50 was inactive: > 100 µM.

With `c1ccc(C2C(=P(c3ccccc3)(c3ccccc3)c3ccccc3)P=PC2[P+](c2ccccc2)(c2ccccc2)c2ccccc2)cc1.c1ccc([B-](c2ccccc2)(c2ccccc2)c2ccccc2)cc1` (stereo not given), the GI50 is inactive: 1.35 µM.

Take `Nc1nc(Cl)nc(NCc2ccccc2)n1`: the GI50 was inactive: > 100 µM.

For `CC1(C)C(=O)N(O)C(C)(C)N1N=O`, the GI50 was inactive: > 10 µM.

Take `COc1ccccc1C(=O)c1ccc2ccccc2c1`: the GI50 was inactive: 27.7 µM.

On to `CC1=N/C(=C\c2cccc([N+](=O)[O-])c2)C(=O)O1`, for which the GI50 is inactive: > 100 µM.

For the molecule `O=C1C(=Cc2c(O)cc(O)cc2O)C(=O)c2ccccc21`, the GI50 was inactive: > 45.2 µM.

For `CCCCN1CCC(O)(c2cc(C(=O)O)[nH]c2-c2cc(C)no2)C1=O` (stereo not given), the GI50 was inactive: > 100 µM.

With `Cc1cc(C)nc(NS(=O)(=O)c2ccc(NC(=O)c3cccc4c(Nc5ccc(S(N)(=O)=O)cc5)c5ccccc5nc34)cc2)n1`, the GI50 is inactive: 14.8 µM.

With `CC(C)c1cccc(=O)c(O)c1`, the GI50 was inactive: 6.79 µM.

On to `C#CCn1c(=O)c(C)cn(/C(=C/C(=O)OCC)C(=O)OCC)c1=O`, for which the GI50 was inactive: 20.4 µM.

Regarding `CC(=O)Oc1ccc2c(c1)c1c(OC(C)=O)c3ccccc3c(OC(C)=O)c1n2Cc1cccc(C)c1`, the GI50 was inactive: 75.3 µM.

For the molecule `OCCCCCCCCCCCOc1ccc(C2OCC3(CC=CCC3)CO2)cc1` (stereo not given), the GI50 was inactive: 17.5 µM.

As for `O=[N+]([O-])c1ccc(N/N=C2/CC3=C2CCCCCCCCCC3)c([N+](=O)[O-])c1`, the GI50 is inactive: > 100 µM.

As for `C/C(=N\O)c1ccc(OCc2cc(C(F)(F)F)cc(C(F)(F)F)c2)cc1`, the GI50 was inactive: > 100 µM.

Regarding `Cc1nc(Nc2ccc(Cl)cc2Cl)sc1C(=O)Nc1ccccc1`, the GI50 was inactive: > 100 µM.

With `O=C1N2Cc3c4ccc5c3CN3C(=O)N6Cc7c(ccc(c7CN1C6(c1ccccc1)C23c1ccccc1)OCCOCCNCCOCCO4)OCCOCCNCCOCCO5` (stereo not given), the GI50 was inactive: 25.1 µM.

With `N=C(N)NCCCC(NC(=O)c1c2ccccc2nc2ccccc12)C(=O)O` (stereo not given), the GI50 was inactive: > 100 µM.

Regarding `C/C=C1/CC(C)C(C)(O)C(=O)OCC2C(O)CN3CCC(OC1=O)C23` (stereo not given), the GI50 is inactive: > 100 µM.

Take `O=c1[nH]nc(Cc2ccc(Cl)cc2)n1/N=C/c1c[nH]c2ccccc12`: the GI50 was inactive: > 100 µM.

Take `O=C1CCCc2cc3c(cc21)CC1(Cc2ccccc2C1)C3`: the GI50 is inactive: 3.88 µM.

As to `CNc1ccc(C)cc1S(=O)(=O)c1ccccc1[N+](=O)[O-]`, the GI50 was inactive: > 100 µM.

On to `Cc1ccc(NC(=O)C(=O)Cc2cc[n+]([O-])cc2)cc1`, for which the GI50 is inactive: > 100 µM.

Take `O=S(=O)(N/N=C\c1c2ccccc2[n+]([O-])c2ccccc12)c1ccc(Cl)cc1`: the GI50 was inactive: > 100 µM.

For the molecule `C=Cn1c([N+](=O)[O-])cnc1/C=C/c1ccc(C(=O)OCCN2CCOCC2)cc1`, the GI50 was inactive: > 100 µM.

For the molecule `COc1ccc(-c2c3c(n(C4OC(CO)C(O)C(O)C4O)c(=S)c2C#N)CC(C)(C)CC3=O)cc1` (stereo not given), the GI50 is inactive: > 100 µM.

Regarding `COc1ccc(C(Cl)=C(c2ccc(OCCN(C)C)cc2)c2ccc(OCCN(C)C)cc2)cc1`, the GI50 was inactive: 2.65 µM.

As to `COc1ccc2nc3ccc(OC)cc3c(SCc3ccc([N+](=O)[O-])cc3)c2c1`, the GI50 was inactive: > 100 µM.

As to `O=C1C(=Cc2ccccc2O)N=C(c2ccccc2)N1n1c(-c2ccccc2)nc2ccccc2c1=O`, the GI50 was inactive: 36.4 µM.

For the molecule `Cc1ccc(-c2nc(N/N=C/c3ccc(O)cc3)c3ccccc3n2)cc1`, the GI50 was inactive: 9.51 µM.

On to `Cc1ccc(/N=C2\SC(=NN(C)C)S\C2=N/c2ccc(C)cc2)cc1`, for which the GI50 is inactive: > 100 µM.

Take `O=[N+]([O-])c1cc(Cl)ccc1S(=O)(=O)c1cc(Cl)cc2c1NCCC2`: the GI50 is inactive: 55.7 µM.

Consider `ClC/C=C/COC1CCCCO1` (stereo not given), for which the GI50 was inactive: > 100 µM.

Turning to `COc1ccc2c(c1)N(C(C)=O)CN1C(=O)CCC21` (stereo not given), the GI50 is inactive: > 100 µM.

Regarding `O=C1CCCC1CN1CCCC1` (stereo not given), the GI50 is inactive: > 100 µM.

Turning to `O=C1OC(OC/C(Br)=C(/Br)COC2OC(=O)C(Cl)=C2Cl)C(Cl)=C1Cl` (stereo not given), the GI50 is inactive: 23.8 µM.

For `Cc1c(N2CCOCC2)nc2ccc(Cl)cc2c1-c1ccccc1`, the GI50 was inactive: > 100 µM.

Regarding `CN(CCCN(C)Cc1ccc(Cl)c(Cl)c1)CCN1CCCC1`, the GI50 was inactive: 15.6 µM.

In the case of `N#Cc1c(C[n+]2ccccc2)c2ccccc2oc1=O`, the GI50 is inactive: > 100 µM.

Regarding `CN(CCS(=O)(=O)N1C(=O)C2CCCN2C(=O)[C@@H]1Cc1ccccc1)C(=O)OCc1ccccc1` (stereo not given in full), the GI50 is inactive: > 100 µM.

In the case of `COC(=O)/C(C#N)=C/c1cc(C(C)(C)C)c(O)c(C(C)(C)C)c1`, the GI50 is inactive: 2.99 µM.

`C=CCNC(=O)CN(CC(=O)OC)C1CCCCC1N(CC(=O)OC)CC(=O)OC` (stereo not given): the GI50 is inactive: > 100 µM.

Regarding `COC(=O)c1ccc(/N=N/N(C)COc2ccc(C#N)cc2)cc1`, the GI50 was inactive: > 100 µM.

As for `COc1ccccc1/C=N/Nc1nnc2c3ccccc3c3ncccc3c2n1`, the GI50 is inactive: > 100 µM.

For the molecule `O=C1OC(=O)C([Se]c2ccccc2)=C1[Se]c1ccccc1`, the GI50 was inactive: > 100 µM.

For `CCN(CC)CCNC(=O)c1ccccc1NC(=O)C(=O)Nc1ccccc1C(=O)NCCN(CC)CC`, the GI50 was inactive: > 100 µM.

Regarding `C=C(C)CC(C)(c1cc2ccccc2n1C)N1CCOCC1` (stereo not given), the GI50 was inactive: > 100 µM.

As to `Cc1cc(Nc2ccc(NS(C)(=O)=O)cc2)c2c(ccc3[nH]ccc32)n1`, the GI50 is inactive: 12.9 µM.

Turning to `COc1ccn(CC(=O)c2cc3ccccc3[nH]2)c(=O)n1`, the GI50 is inactive: > 100 µM.

Consider `C=C1C(=O)CC2C(=O)C(C)(O)CC/C=C(\C)C(=O)CC12` (stereo not given), for which the GI50 is inactive: > 100 µM.

For the molecule `Cn1c(=O)c2[nH]c(/N=N\n3ccc4ccccc43)nc2n(C)c1=O`, the GI50 is inactive: > 100 µM.

Consider `Cc1c(C(=O)/C=C/c2c(Cl)cccc2Cl)c(=O)n(-c2ccccc2)n1C`, for which the GI50 is inactive: 30.3 µM.

For the molecule `Cc1cc(C)c(-c2noc(-c3ccc(Cl)cc3)c2C2=NCCCN2)c(C)c1`, the GI50 was inactive: 8.79 µM.

For `[O-][Cl+3]([O-])([O-])O.c1ccc(/N=c2\snc(-c3ccccc3)s2)cc1`, the GI50 was inactive: > 100 µM.

Regarding `CC(=O)Nc1ccc(S(=O)(=O)NN(C)S(=O)(=O)c2ccc(C)cc2)cc1`, the GI50 was inactive: > 100 µM.

As for `COc1cc2c(cc1OC)c1c(OC)c(OC)cc3c1c1c2sc(=S)n1CC3`, the GI50 is inactive: 89.1 µM.

As for `CCOC(=O)Nc1ccc(S(=O)(=O)OC)cc1.CCOC(=O)Nc1ccc(S(=O)(=O)OC)cc1.NNC(=O)c1ccncc1`, the GI50 is inactive: > 50 µM.

For the molecule `COC(=O)C1[C@@H](C(=O)OC)C12C=Cc1ccccc1C=C2` (stereo not given in full), the GI50 was inactive: > 100 µM.

Consider `CC(=O)C1C(=O)C(=O)N(c2ccc([N+](=O)[O-])cc2Cl)C1=O` (stereo not given), for which the GI50 is inactive: > 100 µM.

Regarding `COc1cc(/C=C/c2cccnc2)cc(OC)c1OC`, the GI50 was inactive: > 100 µM.

For `COc1ccc(OC)c2[nH]c(Sc3c([N+](=O)[O-])ncn3C)nc12`, the GI50 is inactive: 31.3 µM.

As to `NS(=O)(=O)c1ccc(/C=C/c2ccc(F)cc2)cc1`, the GI50 was inactive: 34.1 µM.

As to `CC[C@](O)(C(=O)O)c1cc2n(c(=O)c1CO)Cc1cc3ccccc3nc1-2`, the GI50 was active: 0.581 µM.

As to `NS(=O)(=O)c1nnc(NC(=O)CCC(=O)O)s1`, the GI50 was inactive: > 100 µM.
